Test results from PMC4336329 (PLoS ONE, 2015).
In all, about 310,000 compounds went through this assay and about 14,000 (4.5%) showed an effect of 50% or more. Effects have a minus sign here. The list shows a part of the results.

Molecular target: human ether-à-go-go-related gene (hERG) potassium channel (human, UniProt Q12809)
Assay: primary screen, population patch clamp on CHO cells stably expressing hERG
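Also: peak tail current of the secondary pulse compared with the same well before compound.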

human ether-à-go-go-related gene (hERG) potassium channel, sequence (Q12809 whole entry, looked up): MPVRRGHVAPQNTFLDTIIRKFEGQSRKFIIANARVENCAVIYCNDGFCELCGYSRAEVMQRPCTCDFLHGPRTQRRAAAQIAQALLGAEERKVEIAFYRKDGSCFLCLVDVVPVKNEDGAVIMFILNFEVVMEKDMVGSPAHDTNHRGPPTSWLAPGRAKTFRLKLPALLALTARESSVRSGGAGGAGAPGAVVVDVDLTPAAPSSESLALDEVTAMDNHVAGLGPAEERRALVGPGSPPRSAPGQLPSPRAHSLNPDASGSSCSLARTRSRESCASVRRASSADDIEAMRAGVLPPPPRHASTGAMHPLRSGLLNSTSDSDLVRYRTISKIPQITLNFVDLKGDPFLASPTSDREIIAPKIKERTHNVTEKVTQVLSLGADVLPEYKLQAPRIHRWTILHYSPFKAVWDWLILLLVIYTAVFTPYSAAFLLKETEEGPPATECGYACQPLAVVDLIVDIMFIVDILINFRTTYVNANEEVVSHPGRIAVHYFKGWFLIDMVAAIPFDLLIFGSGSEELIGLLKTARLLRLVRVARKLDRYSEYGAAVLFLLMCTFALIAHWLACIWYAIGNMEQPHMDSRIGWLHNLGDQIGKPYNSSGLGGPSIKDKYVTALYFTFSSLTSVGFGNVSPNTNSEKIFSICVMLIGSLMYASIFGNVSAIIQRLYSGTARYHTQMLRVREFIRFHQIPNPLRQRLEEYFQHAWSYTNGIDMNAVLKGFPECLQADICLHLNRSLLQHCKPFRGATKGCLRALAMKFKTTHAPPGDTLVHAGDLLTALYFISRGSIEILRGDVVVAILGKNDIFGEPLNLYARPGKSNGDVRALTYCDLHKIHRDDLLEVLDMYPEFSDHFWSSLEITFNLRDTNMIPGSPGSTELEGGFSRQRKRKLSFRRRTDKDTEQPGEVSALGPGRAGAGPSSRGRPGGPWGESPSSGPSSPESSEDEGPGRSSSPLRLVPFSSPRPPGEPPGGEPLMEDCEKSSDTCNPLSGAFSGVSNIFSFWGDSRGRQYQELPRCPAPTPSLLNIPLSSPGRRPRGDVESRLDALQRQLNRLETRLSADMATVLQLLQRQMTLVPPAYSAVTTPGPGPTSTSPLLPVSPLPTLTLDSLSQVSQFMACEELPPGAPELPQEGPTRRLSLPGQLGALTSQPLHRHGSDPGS

SMILES	hERG current change (%, negative = inhibition) at 10uM
Cc1cc(C)nc(NN=C(c2ccccc2)c2ccccc2)n1	3.72%
Cc1cc(NC(=O)CCC(=O)N(c2ccccc2)C(C(=O)NC2CCCC2)c2ccncc2)no1 (stereo not drawn)	2.53%
C=CCN(CC=C)C(=O)Nc1ccc(OCC)cc1	7.41%
CCOc1ccc(S(=O)(=O)N2CCN(C(=O)c3cc([N+](=O)[O-])ccc3N3CCOCC3)CC2)cc1	-20.8%
Cc1ccccc1C(=O)Oc1cc(N)n(S(=O)(=O)c2ccccc2)n1	9.18%
CC1(C)CC2(CCO1)OC(=O)CC2C(=O)Nc1cccc2ccccc12 (stereo not drawn)	12%
CN(c1ccccc1)S(=O)(=O)c1cccc(NC(=O)CN2CCc3ccccc3C2)c1	-5.64%
Cc1cc(C)n2nc(-c3ccccc3)c(-c3ccccc3)c2n1	17.4%
C#Cc1cccc(C(=O)NC2CCCN(C3Cc4ccccc4C3)C2)c1 (stereo not drawn)	-64.4%
CCN(CC)c1nc2ccccc2nc1C(C#N)C(=O)NCCCOC (stereo not drawn)	-19.3%
Cc1[nH]c(=O)c(Cc2ccccc2)c(O)c1C#N	10.3%
CCN(CC)S(=O)(=O)c1ccc(OC)c(NC(=O)Cn2cnc3c2c(=O)n(C)c(=O)n3C)c1	-41.3%
Cn1c(=O)c(=O)n(C)c2cc(S(=O)(=O)N3CCC(Cc4ccccc4)CC3)ccc21	-10.9%
CC(C)(Oc1ccc(Cl)cc1)C(=O)NC1CC1	1.41%
Oc1cccc(/C=N\Nc2nncc(-c3ccccc3)n2)c1	1.72%
CCc1nn2c(=O)c(S(=O)(=O)Nc3ccc(C(C)C)cc3)c(C)nc2s1	-7.64%
Cc1onc(-c2ccccc2Cl)c1C(=O)NNC(=O)c1cccc(F)c1	1.37%
C=CCn1c(N)c(C(=O)Nc2ccccc2)c2nc3ccccc3nc21	16.7%
Cn1c(CNC(=O)c2ccccc2F)nnc1SCc1ccc(Cl)cc1	-33.4%

SMILES	hERG current change (%, negative = inhibition) at 10uM
Cc1nonc1C(=O)N/N=C/c1ccc([N+](=O)[O-])o1	-4.8%
COc1ccc(/C(C)=N/NC(=O)CNC(=O)/C=C/c2ccccc2OC)cc1	-24.7%
CCOc1ccccc1CNS(=O)(=O)c1cnc[nH]1	16.3%
CC(=O)N1CCC(=NNc2ccc(S(=O)(=O)N3CCOCC3)cc2[N+](=O)[O-])CC1	-18.2%
Cc1ccc2nc(NC(=O)COC(=O)c3ccc(Br)o3)sc2c1	-1.31%
O=C(N/N=C/C(Cl)=C/c1ccccc1)c1ccccc1F	6.59%
O=C(CCCN1C(=O)/C(=C\c2ccccc2)SC1=S)Nc1ccc(O)cc1C(=O)O	18.1%
Cc1cc(NC(=S)NC(=O)C2CC2)ccc1Br	9.92%
CCCCCN1CSC(=S)N(Cc2ccccc2)C1	8.69%
CCN(CC(=O)Nc1ccc2c(c1)OCO2)CC(=O)Nc1ccccc1C(F)(F)F	-14.4%
Cc1ncc(CN2CCCC(C(=O)Nc3ccc(-c4ccco4)cc3)C2)n1C (stereo not drawn)	-59.6%
CC1CCN(S(=O)(=O)c2cc3c4c(c2)CCN4C(=O)CC3)CC1	-19.3%
c1csc(-c2nc(N3CCOCC3)c3ccccc3n2)c1	-10.1%
CCCOc1ccc(Oc2nc(-c3ccncc3)nc3ccccc23)cc1	-0.829%
COc1ccccc1N(CC(=O)Nc1ccc2c(c1)OCCO2)S(C)(=O)=O	-1.7%
O=C(Cc1ccc([N+](=O)[O-])cc1)NNC(=O)c1cccs1	-8.27%
CS(=O)(=O)N(CC(=O)Nc1ccc(F)c(F)c1)c1cccc([N+](=O)[O-])c1	-46.6%
COc1ccc(Cl)cc1NC(=O)CSc1nc(N2CCCCC2)nc(N2CCCCC2)n1	13.3%
Cn1c(SCC(=O)OC2CCCCC2)nnc1-c1ccco1	0.11%

SMILES	hERG current change (%, negative = inhibition) at 10uM
C/C=C/COC(=O)C1=C(C)NC(=O)NC1c1ccc2c(c1)OCO2 (stereo not drawn)	7.01%
COc1ccc(N2CC(C(=O)NCc3ccccc3)CC2=O)cc1 (stereo not drawn)	3.67%
Cc1c(NC(=O)CSc2ncn[nH]2)c(=O)n(-c2ccccc2)n1C	24.4%
C=CCN(c1ccccc1)S(=O)(=O)c1cc2c(cc1C)NC(=O)CO2	-17.6%
CCOc1cccc(-c2c(C(=O)N/N=C/c3c(F)cccc3Cl)nnn2-c2nonc2N)c1	6.72%
O=P(Nc1cccc(F)c1)(Oc1ccccc1F)Oc1ccccc1F	4.58%
C#CCn1ccc(O)c(Cc2c(F)cccc2Cl)c1=O	8.2%
O=c1cc(CSc2nnc(COc3ccccc3)n2-c2ccccc2)c2ccccc2[nH]1	-14.6%
COCCCNC(=O)C(=O)NC1CCCCCC1	13.8%
COc1ccc(-c2nc(CSCC(=O)NCc3ccco3)c(C)o2)cc1	-3.31%
COc1ccc(C(CNC(=O)COc2ccccc2OC)N(C)C)cc1OC (stereo not drawn)	4.82%
Brc1c(CSc2nncn2-c2ccccc2)nc2sccn12	7.63%
Clc1ccc(CSc2nc3ccncc3[nH]2)cc1	-6.8%
CC(C)(Oc1ccc(Cl)cc1)C(=O)NCC(c1cccs1)N1CCOCC1 (stereo not drawn)	-5.84%
C=C(C)CN(CC)C(=O)CC1C(=O)NCCN1CC(C)(C)C (stereo not drawn)	1.9%
O=C(/C=C/c1cccnc1)c1ccccc1O	2.4%
COc1ccc(C(CNC(=O)CCNC(=O)c2ccccc2Cl)N2CCCC2)cc1 (stereo not drawn)	6.42%
CSc1sc(C(=O)NCC2CC2)c2c1S(=O)(=O)N(C)c1ccccc1-2	10.2%
Cc1cc(C)n2nc(C(=O)NNC(=O)c3ccc(Cl)cc3)nc2n1	-15.2%
